# Reference: the supplement of paper PMC7266297
# Counter-ions that a name gives are not always drawn. The list shows a part of the results. Single values are uncertain, as repeats are few or missing.
# Test system: KB-3-1
# Assay: growth inhibition relative to DMSO control (SRB); cervical cancer cells: KB-3-1 is the parent and KB-V1 overexpresses MDR1; SRB is the sulforhodamine B stain; higher = more growth inhibition
# Details: 1 µM; 72 h
# 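Note: Read-out is SRB optical density at 490 nm, with the control being wells given 0.5% DMSO vehicle, and compound added one day after cells were plated.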
row,SMILES,growth inhibition
1,CC(C)(C)c1cc(C=C(C#N)C#N)cc(C(C)(C)C)c1O [Tyrphostin 9],91.5%
2,COC(=O)C1=CCCN(C)C1 [Arecoline],27.8%
3,COc1ccc(C(CN(C)C)C2(O)CCCCC2)cc1 (configuration not stated) [Venlafaxine],14.1%
4,C[C@]12N[C@H](Cc3ccccc31)c1ccccc12 [MK-801 (Dizocilpine)],15.7%
5,Fc1cc(F)c2c(c1)[C@H]1C=CC[C@H]1C(c1cccnc1)N2 (some centres not stated) [Golgicide A],< 0%
6,C[N+]1(C)[C@@H]2C[C@@H](OC(=O)[C@H](CO)c3ccccc3)C[C@H]1[C@@H]1O[C@@H]12 [Methscopolamine],41.9%
7,CN1CCC(c2c[nH]c3ccc(O)cc23)CC1,23.6%
8,CN1[C@@H]2CC[C@H]1C[C@@H](OC(=O)C(CO)c1ccccc1)C2 (some centres not stated) [Atropine],< 0%
9,CC(NC(C)(C)C)C(=O)c1cccc(Cl)c1 (configuration not stated) [Amfebutamone HCl],27.8%
10,C[C@]12CC[C@H]3[C@@H](CC[C@@]45O[C@@H]4C(O)=C(C#N)C[C@]35C)[C@@H]1CC[C@@H]2O [Trilostane],13%
11,CCc1c(C(=O)C(N)=O)c2c(OCC(=O)O)cccc2n1Cc1ccccc1,5.13%
12,O=C1CCC[C@@H]2[C@H]3CCCN4CCC[C@@H](CN12)[C@@H]34 [(+)-Matrine],< 0%
13,N[C@@H]1C[C@H]1c1ccccc1 [Tranylcypromine (2-PCPA) HCl],14.1%
14,CC[C@@]1(O)C(=O)OCc2c1cc1n(c2=O)Cc2cc3ccccc3nc2-1 [Camptothecin],79.7%
15,C=CCN1CC[C@]23c4c5ccc(O)c4O[C@H]2C(=O)CC[C@@]3(O)[C@H]1C5 [Naloxone HCl],< 0%
16,COc1cc(-n2c(=S)[nH]c3ccccc3c2=O)c(Cl)cc1Cl [Mdivi-1],< 0%
17,Cc1sc2c(c1C)C(c1ccc(Cl)cc1)=N[C@@H](CC(=O)Nc1ccc(O)cc1)c1nnc(C)n1-2,55%
18,C[C@]12CCC(=O)C(O)=C1CC[C@@H]1[C@@H]2CC[C@]2(C)C(=O)CC[C@@H]12 [Formestane],< 0%
19,CC[C@@H]1/C=C/C=C/C[C@H](C)[C@H](O)[C@](C)(O)C(=O)[C@H](C)[C@@H](O)[C@H](C)C(=O)[C@H](C)[C@@H](O)[C@H](C)/C=C/C(=O)O[C@H]2[C@@H](C)[C@@H](CC1)O[C@@]1(CC[C@@H](C)[C@@H](C[C@H](C)O)O1)[C@@H]2C [Oligomycin A],87.8%

row,SMILES,growth inhibition
1,CCN(CC)C(=O)c1ccc(C2=CC3(CCNCC3)Oc3cccc(O)c32)cc1,30%
2,Cc1sc2c(c1C)C(c1ccc(Cl)cc1)=N[C@@H](CC(=O)OC(C)(C)C)c1nnc(C)n1-2,71.5%
3,C#C[C@]1(O)C=C[C@H]2[C@@H]3CCC4=CC(=O)CC[C@@H]4[C@H]3CC[C@@]21CC [Gestodene],9.33%
4,CCCN1C[C@H](CSC)C[C@@H]2c3cccc4[nH]cc(c34)C[C@H]21 [Pergolide mesylate],< 0%
5,CCOC(=O)c1cncn1[C@H](C)c1ccccc1 [Etomidate],11.3%
6,CCC(COC(=O)c1cc(OC)c(OC)c(OC)c1)(c1ccccc1)N(C)C (configuration not stated) [Trimebutine],22.3%
7,O=C1CC[C@@]2(O)[C@H]3Cc4ccc(O)c5c4[C@@]2(CCN3CC2CC2)[C@H]1O5 [Naltrexone HCl],< 0%
8,O=c1[nH]c2ccc(Cl)cc2c(N[C@@H]2CN3CCC2CC3)c1-c1nc2ccccc2[nH]1,100%
9,O=C(O)CNC(=O)c1c(O)c2ccccc2n(Cc2ccccc2)c1=O,< 0%
10,COc1ccc(C(=O)N2CCCC2=O)cc1 [Aniracetam],4.32%
11,CN1[C@@H]2CC(O)C[C@H]1[C@@H]1O[C@@H]12 (some centres not stated) [Scopine],11.8%
12,"CN1CCc2cc3c(cc2C1C1OC(=O)c2c1ccc1c2OCO1)OCO3 (single isomer, unassigned; (+)) [(+)-Bicuculline]",5.93%
13,Cc1cccc([C@H](C)c2c[nH]cn2)c1C [Dexmedetomidine],< 0%
14,CN1CCCCC1Cn1cc(C(=O)c2cc([N+](=O)[O-])ccc2I)c2ccccc21 (configuration not stated),23.8%
15,COC[C@H]1OC(=O)c2coc3c2[C@@]1(C)C1=C(C3=O)[C@@H]2CCC(=O)[C@@]2(C)C[C@H]1OC(C)=O [Wortmannin],< 0%
16,CN(C)C(=O)Oc1ccc[n+](C)c1 [Pyridostigmine Bromide],26.2%
17,CNCC(O)c1ccc(O)cc1 (configuration not stated) [Synephrine],< 0%
18,CN1[C@@H]2CC[C@H]1C[C@@H](OC(=O)[C@H](CO)c1ccccc1)C2 [Hyoscyamine],< 0%
